Among the data in publication PMC7819943, “Rice protein-binding microarrays: a tool to detect cis-acting elements near promoter regions in rice” are binding signal values, retold here.

The other results are listed elsewhere or left out.

The target in this assay is T1, OsWOX13 (Oryza sativa, UniProt Q5QMM3 1-267).
T1 sequence: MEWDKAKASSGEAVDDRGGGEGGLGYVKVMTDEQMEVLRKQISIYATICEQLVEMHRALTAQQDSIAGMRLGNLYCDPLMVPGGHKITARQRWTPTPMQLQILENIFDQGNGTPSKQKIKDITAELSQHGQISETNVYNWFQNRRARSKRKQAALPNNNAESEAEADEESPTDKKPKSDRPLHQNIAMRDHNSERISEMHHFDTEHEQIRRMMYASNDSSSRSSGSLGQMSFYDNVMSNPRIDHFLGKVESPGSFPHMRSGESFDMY
In words: protein-binding microarray (RPBM); PBS, 2% BSA, 51.3 ng/ul salmon testes DNA, 50 uM zinc acetate, 200 nM TF, 25 C, 1 h; high values mean tight binding. To be noted: protein: recombinant; tags: N-terminal polyhistidine and DsRed monomer fusion (pET32a); label: CyDye5-dUTP incorporated in the synthesized complementary strand; 3' TTTTT single-stranded linker to array surface; dsDNA, one strand shown. A digest of the protocol: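 Binding signal is reported as fluorescence intensity per feature (arbitrary units) from an Axon 4000B scanner. Incubation used 200 nM of each Ni–NTA-purified, N-terminally polyhistidine- and DsRed-fused transcription factor from E. coli BL21-CodonPlus on a double-stranded custom Agilent array for 1 h at 25 °C, with 50 µM zinc acetate in the buffer, followed by washing.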
As for “GCCTAATTAATTCGTCATTAGTAAACATTTACTGTAGCACCGGAGTCACCTAGTGCAG”, the binding signal is 35900 fluorescence intensity (a.u.). Consider “GATGTGATTTAAGCTATTGATGTGCTCGAGAAACTCTTTTCGGAGTCACCTAGTGCAG”, for which the binding signal was 25000 fluorescence intensity (a.u.).

For the sequence “GTCACTAATTTACAAATTTACAAATCAGTCCATTCTCACACGGAGTCACCTAGTGCAG”, the binding signal was 44100 fluorescence intensity (a.u.). As for “TATATAAATATAATTTATTTTGTTGTGATTTATTTTATCACGGAGTCACCTAGTGCAG”, the binding signal is 4940 fluorescence intensity (a.u.).

For “ACTTTAATAATTCAATTTAGAAGGGAAATACCATCCCTTTCGGAGTCACCTAGTGCAG”, the binding signal is 6640 fluorescence intensity (a.u.). Under “TATATATATATATATATCATACACCGTTTAATTATTATTCCGGAGTCACCTAGTGCAG” stands 12400 fluorescence intensity (a.u.). The value for “CTTAGCATTCAATTTCTTCTAAAATTGAATACCACCGATTCGGAGTCACCTAGTGCAG” was 9020 fluorescence intensity (a.u.). With “GGTGTTACTAGTTAATTAACACGAAACCTAATGCTAATCTCGGAGTCACCTAGTGCAG”, the binding signal is 7570 fluorescence intensity (a.u.).

“ATACTTAATCAAAGTAACTCGTAAAATGAATATGAAACAGCGGAGTCACCTAGTGCAG”: the binding signal is 4340 fluorescence intensity (a.u.). For the sequence “ATTCAAATTGACAACTCTTTGAATTGATCTGCAGGTTCTCCGGAGTCACCTAGTGCAG”, the binding signal is 34500 fluorescence intensity (a.u.). The value for “AAGATAAATTGATCAGTGAATGCTGAAATGGCCAAGTTTTCGGAGTCACCTAGTGCAG” was 39200 fluorescence intensity (a.u.); that for “GAGATTAATTAAATCGATAAGCTACCAGAGGTTTAGTTTTCGGAGTCACCTAGTGCAG” was 9960 fluorescence intensity (a.u.); that for “CAGTAAATTACGGAACTGCCCCAACCAGTCCCTATAAATACGGAGTCACCTAGTGCAG” was 8000 fluorescence intensity (a.u.). Under “ATTTCGGTCTCATTTCTGTTAGTTCGGTTGGTTTTAATTTCGGAGTCACCTAGTGCAG” stands 4290 fluorescence intensity (a.u.); under “GCATAGTGATTGCAGACATCAAGGTCATAGCAGTGGGTTTCGGAGTCACCTAGTGCAG”, 16200 fluorescence intensity (a.u.); under “AAACTTAATTAATCATATGTTATTGGTTTTCTCGTTTTACCGGAGTCACCTAGTGCAG”, 18500 fluorescence intensity (a.u.). Consider “GATTTTGTCAATCTAAGAGATGTACCACAAGTACTCAAGCCGGAGTCACCTAGTGCAG”, for which the binding signal is 6210 fluorescence intensity (a.u.). As for “AAGTATTTTACGAACTGTGATTGACAGTTAAAGGATCAAACGGAGTCACCTAGTGCAG”, the binding signal was 21200 fluorescence intensity (a.u.). Take “GTATACATATAGATTGCAATTACGAAAATATAACAAGAGTCGGAGTCACCTAGTGCAG”: the binding signal is 20500 fluorescence intensity (a.u.). As for “GGGCATTATTTTGTCCAAATTGATTCTTAACCATTGGGCACGGAGTCACCTAGTGCAG”, the binding signal was 5160 fluorescence intensity (a.u.). In the case of “AATTCTAAACGTTAATTGGCAACTTTCTTGTTTTCCATTACGGAGTCACCTAGTGCAG”, the binding signal is 15200 fluorescence intensity (a.u.).

For “AGAATTTATATTAATTATTCATTAATTTACAAGTGAAGTTCGGAGTCACCTAGTGCAG”, the binding signal was 21800 fluorescence intensity (a.u.). Consider “TGAAGACTGGCAAGAATTGATTTATATGTTCTGGGATGTGCGGAGTCACCTAGTGCAG”, for which the binding signal is 17300 fluorescence intensity (a.u.).

On to “TGTATTTAATCAAAATTTAGTCAAATTCAGTTAAATTGTGCGGAGTCACCTAGTGCAG”, for which the binding signal is 8910 fluorescence intensity (a.u.). Consider “TATATTGGTTCTATATATTAATTGACGTTTTGAACAATATCGGAGTCACCTAGTGCAG”, for which the binding signal is 8450 fluorescence intensity (a.u.). In the case of “GTGTTAACAATGATTGATTTAAGGTATGGTGGTAGGTGACCGGAGTCACCTAGTGCAG”, the binding signal was 49400 fluorescence intensity (a.u.). Under “CGTCTGGGGTTTGATTGGGATTGAGGCGAATTCGGGCGGTCGGAGTCACCTAGTGCAG” stands 34000 fluorescence intensity (a.u.); under “AGATTTAATTTAATATTTTATTGTTTACCACACAGCTGCTCGGAGTCACCTAGTGCAG”, 28200 fluorescence intensity (a.u.); under “ATAAATTGAATCAGCAGTTCAGCACCACATCAAGTGGAATCGGAGTCACCTAGTGCAG”, 28000 fluorescence intensity (a.u.). Take “CATTTAATTCATGTGACTTTTGAAATTTGTACCGAAATGCCGGAGTCACCTAGTGCAG”: the binding signal was 3520 fluorescence intensity (a.u.).

With “CCGATACTAGTAATTTGTTAATCGCGTCCGTTAGTCTACGCGGAGTCACCTAGTGCAG”, the binding signal is 7740 fluorescence intensity (a.u.). As to “ACTAAAACTCGATAATTATTCGGTGTATTATGCGAGCACGCGGAGTCACCTAGTGCAG”, the binding signal was 11900 fluorescence intensity (a.u.). Consider “GGATTAATTAGGCTTAATAAATTCATCTCGCAGTTTTCTGCGGAGTCACCTAGTGCAG”, for which the binding signal was 26200 fluorescence intensity (a.u.). Under “TTAATGACGGATTAATTAGACTTAATAAATTCTTCTCGCACGGAGTCACCTAGTGCAG” stands 34500 fluorescence intensity (a.u.). As for “CCCCACTCTAACTCTCGTGTTGATTGCAGCGAATTTAGATCGGAGTCACCTAGTGCAG”, the binding signal is 5270 fluorescence intensity (a.u.). Take “TCTCTACCAATCATATTTATTCTTCATCTATTATGAAGACCGGAGTCACCTAGTGCAG”: the binding signal is 7220 fluorescence intensity (a.u.). The value for “CCATTTAATTTAATTTATTTATACAGCAAAAGAATTCATGCGGAGTCACCTAGTGCAG” was 26100 fluorescence intensity (a.u.). The value for “CTTGTTCTTCTTAGTTCATCAATCAACATGATGAAATATTCGGAGTCACCTAGTGCAG” was 4600 fluorescence intensity (a.u.).

Consider “ACATAACTAATCAAGTTTTAATTGCTCTAAATTTAAAATTCGGAGTCACCTAGTGCAG”, for which the binding signal is 15700 fluorescence intensity (a.u.).

Regarding “TTTCAAAATTTAAACAATTTCCAGCATTTTGGCCTGGAAGCGGAGTCACCTAGTGCAG”, the binding signal was 3340 fluorescence intensity (a.u.).

Take “ATTTGATCTGATTTGATTAATTTTGCATGCACGCGAATGGCGGAGTCACCTAGTGCAG”: the binding signal was 61700 fluorescence intensity (a.u.).

In the case of “TTAATTTGATCAAATATAACAAGTTTAAGTTAGGAGTTAGCGGAGTCACCTAGTGCAG”, the binding signal was 26800 fluorescence intensity (a.u.). Take “AGCATTACTAATTTGCTTCATATATTGTGTTTTGTGATGTCGGAGTCACCTAGTGCAG”: the binding signal is 7040 fluorescence intensity (a.u.). Consider “TTTGATTGAAAGCAAATAAGTATGATATAGTTATATTTAACGGAGTCACCTAGTGCAG”, for which the binding signal was 26700 fluorescence intensity (a.u.).

Consider “TGTGACAAATGAGACAAATTTGACTAGGTGTCACATTGCTCGGAGTCACCTAGTGCAG”, for which the binding signal is 18800 fluorescence intensity (a.u.).

“TGAGATAATTTTAAAATGCTAGAAACTGCTATATCTTCGGCGGAGTCACCTAGTGCAG”: the binding signal is 19500 fluorescence intensity (a.u.). The value for “ACTGATAGAGCTGTAATAAGCGAGCACCCATACACCATGGCGGAGTCACCTAGTGCAG” was 16700 fluorescence intensity (a.u.).

In the case of “AGGGAAAGTTGTGATTGAGGGAGGATGTTAGATAATGTTACGGAGTCACCTAGTGCAG”, the binding signal is 10100 fluorescence intensity (a.u.). The value for “TCAGACATGTCTTTAATCGTGATTTTGATCTAATAGAAGGCGGAGTCACCTAGTGCAG” was 4880 fluorescence intensity (a.u.). Take “ATCCAATTACCGTTATTACACTTATGGGTTATCTGAATATCGGAGTCACCTAGTGCAG”: the binding signal is 15500 fluorescence intensity (a.u.).

Turning to “TAATTAATTAGCACATGTTAAAAGTGGCAAGTTAAATGTCCGGAGTCACCTAGTGCAG”, the binding signal was 18400 fluorescence intensity (a.u.). For “TTGAAACTAATTAGAAGTATTAAACGTAGACTAATGATAACGGAGTCACCTAGTGCAG”, the binding signal was 12600 fluorescence intensity (a.u.). With “AATATATTATATTAATTATTCAAAATCACTCATTTATGCTCGGAGTCACCTAGTGCAG”, the binding signal is 5640 fluorescence intensity (a.u.). “GAGATAGAGATAATAGAAAGATTAAACAAGATTCGATAGACGGAGTCACCTAGTGCAG”: the binding signal is 3590 fluorescence intensity (a.u.).
